For some of these results: At least one peptide structure holds a part that was inferred or is arguable (an end, a ring closure or a residue). At least one structure is not confirmed: it was looked up by name or label, or the drawing left a doubt. Bridge positions count the residues as written; N and C are the ends. Peptide text beside a SMILES is read from it. * marks the point of attachment. Pentanoyl = CCCCC(=O)*
Columns and labels:
Assay type in all cases: cell-based
hIK1 (KCa3.1) = hIK1 (KCa3.1) (Homo sapiens, UniProt O15554); experiment: patch-clamp whole-cell recording, Ca2+-activated K+ current block; conditions: read-out: ID50 hIK1
Description: (§1) Electrophysiological experiments were carried out at 22-24° C. using the patch-clamp whole-cell recording mode. Cells were bathed with mammalian Ringer's solution (in mM): 160 NaCl, 4.5 KCl, 2 CaCl2, 1 MgCl2, and 10 HEPES (pH 7.4 with NaOH), with an osmolarity of 290-320 mOsm. […] A syringe-driven perfusion device was used to exchange the external recording bath solution. Two internal pipette solutions were used, one for measuring voltage-gated K^+ currents that contained (in mM): 155 KF, 2 MgCl2, 10 HEPES, and 10 EGTA (pH 7.2 with KOH), with an osmolarity of 290-320 mOsm and another for measuring Ca^2+-activated K^+ currents that contained (in mM): 135 K-aspartate, 8.7 CaCl2, 2 MgCl2, 10 EGTA, 10 HEPES (pH 7.2 with KOH), with an osmolarity of 290-320 mOsm. A free [Ca^2+]i of 1 μM was calculated. All currents through voltage-gated K^+ channels were elicited by 200 ms depolarising voltage steps from −80 to +40 mV. Potassium currents through KCa1.1, KCa2.1 and KCa3.1 were elicited by 1 μM internal [Ca^2+]i and 400 ms voltage ramps from −120 to 0 mV (for KCa3.1 channel and KCa1.1 channel) and from −120 to +40 mV (for KCa2.1 channel). Electrodes were pulled from glass capillaries (Science Products, Germany), and fire-polished to resistances of 2.5-5 MΩ. Membrane currents were measured with an EPC-9 or EPC-10 patch-clamp amplifier (HEKA Elektronik, Lambrecht, Germany) interfaced to a Macintosh computer running acquisition and analysis software (Pulse and PulseFit). When voltage-gated K^+ currents were measured, the capacitive and leak currents were subtracted using a P/10 procedure. Series resistance compensation (>80%) was used for currents above 2 nA. The holding potential was −80 mV in all experiments.

mKv1.1 = mKv1.1 (Mus musculus, UniProt P16388); experiment: patch-clamp whole-cell recording, K+ current block; conditions: read-out: ID50 mKv1.1
Description: as §1

hKv1.2 = hKv1.2 (Homo sapiens, UniProt P16389); experiment: patch-clamp whole-cell recording, K+ current block; conditions: read-out: ID50 hKv1.2
Description: as §1

mKv1.3 = mKv1.3 (Mus musculus, UniProt P16390); experiment: patch-clamp whole-cell recording, K+ current block; conditions: read-out: ID50 mKv1.3
Description: as §1

hKv3.2 = target: T1, hKv3.2 (Homo sapiens, UniProt Q96PR1); experiment: patch-clamp whole-cell recording, K+ current block; conditions: read-out: ID50 hKv3.2
T1 sequence (Q96PR1 1-638): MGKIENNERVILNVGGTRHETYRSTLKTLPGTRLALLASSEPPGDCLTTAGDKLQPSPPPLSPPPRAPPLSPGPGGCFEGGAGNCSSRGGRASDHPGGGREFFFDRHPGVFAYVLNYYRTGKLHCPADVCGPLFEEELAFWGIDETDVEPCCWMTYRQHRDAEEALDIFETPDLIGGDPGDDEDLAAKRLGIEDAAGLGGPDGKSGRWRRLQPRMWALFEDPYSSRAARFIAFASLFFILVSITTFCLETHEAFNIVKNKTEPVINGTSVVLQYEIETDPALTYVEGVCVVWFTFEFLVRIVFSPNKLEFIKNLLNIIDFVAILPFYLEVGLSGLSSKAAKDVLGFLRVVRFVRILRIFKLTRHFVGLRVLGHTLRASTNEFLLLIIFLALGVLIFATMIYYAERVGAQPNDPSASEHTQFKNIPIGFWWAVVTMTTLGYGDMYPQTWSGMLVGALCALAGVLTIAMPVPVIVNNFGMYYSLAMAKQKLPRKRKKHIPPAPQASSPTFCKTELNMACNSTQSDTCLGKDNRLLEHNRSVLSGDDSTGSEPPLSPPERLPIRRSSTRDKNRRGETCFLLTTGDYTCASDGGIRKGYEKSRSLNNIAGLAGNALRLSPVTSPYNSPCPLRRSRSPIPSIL
Description: as §1

Structure (SMILES)	IC50 (hIK1 (KCa3.1)) [nM]	IC50 (mKv1.1) [nM]	IC50 (hKv1.2) [nM]	IC50 (mKv1.3) [nM]	IC50 (hKv3.2) [nM]
CC[C@H](C)[C@@H]1NC(=O)[C@H](CCCCN)NC(=O)[C@@H](NC(=O)[C@H](CCCCN)NC(=O)[C@@H](NC(=O)[C@H](CC(N)=O)NC(=O)[C@@H](NC(=O)[C@@H](NC(=O)[C@@H](N)[C@@H](C)O)[C@@H](C)CC)[C@@H](C)CC)C(C)C)CSSC[C@@H]2NC(=O)[C@H](CCCCN)NC(=O)CNC(=O)[C@H](Cc3ccccc3)NC(=O)[C@H](CCCNC(=N)N)NC(=O)[C@H](CCSC)NC(=O)CNC(=O)[C@H](C)NC(=O)[C@H](CC(=O)O)NC(=O)[C@H](CCCCN)NC(=O)[C@@H]3CSSC[C@@H](C(=O)N[C@H](C(=O)N4CCC[C@H]4C(=O)N[C@@H](CCCCN)C(=O)O)[C@@H](C)O)NC(=O)[C@H](Cc4c[nH]cn4)NC(=O)[C@H](CSSC[C@H](NC(=O)[C@H](CCC(N)=O)NC(=O)[C@H](CCCNC(=N)N)NC(=O)[C@H](CO)NC1=O)C(=O)N[C@@H](CC(C)C)C(=O)N[C@@H](CCCCN)C(=O)N1CCC[C@H]1C(=O)N3)NC(=O)[C@H](CCCCN)NC(=O)CNC(=O)[C@H](CC(N)=O)NC(=O)[C@H](CCSC)NC2=O (H-TIINVKCKISRQCLKPCKDAGMRFGKCMNGKCHCTPK-OH; disulfide 7-27, 13-32, 17-34)	> 1000	0.36 ± 0.04			
CC[C@H](C)[C@@H]1NC(=O)[C@H](CCCCN)NC(=O)[C@@H](N)CSSC[C@@H]2NC(=O)[C@H](CCCCN)NC(=O)CNC(=O)[C@H](Cc3ccccc3)NC(=O)[C@H](CCCNC(=N)N)NC(=O)[C@H](CCSC)NC(=O)CNC(=O)[C@H](C)NC(=O)[C@H](CC(=O)O)NC(=O)[C@H](CCCCN)NC(=O)[C@@H]3CSSC[C@@H](C(=O)N[C@H](C(=O)N4CCC[C@H]4C(=O)N[C@@H](CCCCN)C(=O)O)[C@@H](C)O)NC(=O)[C@H](Cc4c[nH]cn4)NC(=O)[C@H](CSSC[C@H](NC(=O)[C@H](CCC(N)=O)NC(=O)[C@H](CCCNC(=N)N)NC(=O)[C@H](CO)NC1=O)C(=O)N[C@@H](CC(C)C)C(=O)N[C@@H](CCCCN)C(=O)N1CCC[C@H]1C(=O)N3)NC(=O)[C@H](CCCCN)NC(=O)CNC(=O)[C@H](CC(N)=O)NC(=O)[C@H](CCSC)NC2=O (H-CKISRQCLKPCKDAGMRFGKCMNGKCHCTPK-OH; disulfide 1-21, 7-26, 11-28)	> 1000	7.9 ± 1.2	> 1000	0.114 ± 0.005	> 1000
CCCCC(=O)NCC(=O)N[C@H](C(=O)N[C@H](C(=O)N[C@H](C(=O)N[C@@H](CC(N)=O)C(=O)N[C@H](C(=O)N[C@@H](CCCCN)C(=O)N[C@H]1CSSC[C@@H]2NC(=O)[C@H](CCCCN)NC(=O)CNC(=O)[C@H](Cc3ccccc3)NC(=O)[C@H](CCCNC(=N)N)NC(=O)[C@H](CCSC)NC(=O)CNC(=O)[C@H](C)NC(=O)[C@H](CC(=O)O)NC(=O)[C@H](CCCCN)NC(=O)[C@@H]3CSSC[C@@H](C(=O)N[C@H](C(=O)N4CCC[C@H]4C(=O)N[C@@H](CCCCN)C(=O)O)[C@@H](C)O)NC(=O)[C@H](Cc4c[nH]cn4)NC(=O)[C@H](CSSC[C@H](NC(=O)[C@H](CCC(N)=O)NC(=O)[C@H](CCCNC(=N)N)NC(=O)[C@H](CO)NC(=O)[C@H]([C@@H](C)CC)NC(=O)[C@H](CCCCN)NC1=O)C(=O)N[C@@H](CC(C)C)C(=O)N[C@@H](CCCCN)C(=O)N1CCC[C@H]1C(=O)N3)NC(=O)[C@H](CCCCN)NC(=O)CNC(=O)[C@H](CC(N)=O)NC(=O)[C@H](CCSC)NC2=O)C(C)C)[C@@H](C)CC)[C@@H](C)CC)C(C)C (Pentanoyl-GVIINVKCKISRQCLKPCKDAGMRFGKCMNGKCHCTPK-OH; disulfide 8-28, 14-33, 18-35)	> 1000		> 1000		
CC[C@H](C)[C@@H]1NC(=O)[C@H](CCCCN)NC(=O)[C@@H](NC(=O)[C@H](CCCCN)NC(=O)[C@@H](NC(=O)[C@H](CC(N)=O)NC(=O)[C@@H](NC(=O)[C@@H](NC(=O)[C@@H](NC(=O)CN)C(C)C)[C@@H](C)CC)[C@@H](C)CC)C(C)C)CSSC[C@@H]2NC(=O)[C@H](CCCCN)NC(=O)CNC(=O)[C@H](Cc3ccccc3)NC(=O)[C@H](CCCNC(=N)N)NC(=O)[C@H](CCSC)NC(=O)CNC(=O)[C@H](C)NC(=O)[C@H](CCCCN)NC(=O)[C@H](CCCCN)NC(=O)[C@@H]3CSSC[C@@H](C(=O)N[C@H](C(=O)N4CCC[C@H]4C(=O)N[C@@H](CCCCN)C(=O)O)[C@@H](C)O)NC(=O)[C@H](C)NC(=O)[C@H](CSSC[C@H](NC(=O)[C@H](CCC(N)=O)NC(=O)[C@H](CCCNC(=N)N)NC(=O)[C@H](CO)NC1=O)C(=O)N[C@@H](CC(C)C)C(=O)N[C@@H](CCC(=O)O)C(=O)N1CCC[C@H]1C(=O)N3)NC(=O)[C@H](CCCCN)NC(=O)CNC(=O)[C@H](CC(N)=O)NC(=O)[C@H](CCSC)NC2=O [[A^34]-OsK1] (H-GVIINVKCKISRQCLEPCKKAGMRFGKCMNGKCACTPK-OH; disulfide 8-28, 14-33, 18-35)	> 1000	15.8 ± 2.8	65 ± 3	0.034 ± 0.008	> 1000
CC[C@H](C)[C@@H]1NC(=O)[C@H](CCCCN)NC(=O)[C@@H](NC(=O)[C@H](CCCCN)NC(=O)[C@@H](NC(=O)[C@H](CC(N)=O)NC(=O)[C@@H](NC(=O)[C@@H](NC(=O)[C@@H](NC(=O)CN)C(C)C)[C@@H](C)CC)[C@@H](C)CC)C(C)C)CSSC[C@@H]2NC(=O)[C@H](CCCCN)NC(=O)CNC(=O)[C@H](Cc3ccccc3)NC(=O)[C@H](CCCNC(=N)N)NC(=O)[C@H](CCSC)NC(=O)CNC(=O)[C@H](C)NC(=O)[C@H](CC(=O)O)NC(=O)[C@H](CCCCN)NC(=O)[C@@H]3CSSC[C@@H](C(=O)O)NC(=O)[C@H](Cc4c[nH]cn4)NC(=O)[C@H](CSSC[C@H](NC(=O)[C@H](CCC(N)=O)NC(=O)[C@H](CCCNC(=N)N)NC(=O)[C@H](CO)NC1=O)C(=O)N[C@@H](CC(C)C)C(=O)N[C@@H](CCCCN)C(=O)N1CCC[C@H]1C(=O)N3)NC(=O)[C@H](CCCCN)NC(=O)CNC(=O)[C@H](CC(N)=O)NC(=O)[C@H](CCSC)NC2=O (H-GVIINVKCKISRQCLKPCKDAGMRFGKCMNGKCHC-OH; disulfide 8-28, 14-33, 18-35)	> 1000	366 ± 63	> 1000	1.85 ± 0.7	> 1000
CC[C@H](C)[C@@H]1NC(=O)[C@H](CCCCN)NC(=O)[C@@H](NC(=O)[C@H](CCCCN)NC(=O)[C@@H](NC(=O)[C@H](CC(N)=O)NC(=O)[C@@H](NC(=O)[C@@H](NC(=O)[C@@H](N)C(C)C)[C@@H](C)CC)[C@@H](C)CC)C(C)C)CSSC[C@@H]2NC(=O)[C@H](CCCCN)NC(=O)CNC(=O)[C@H](Cc3ccccc3)NC(=O)[C@H](CCCNC(=N)N)NC(=O)[C@H](CCSC)NC(=O)CNC(=O)[C@H](C)NC(=O)[C@H](CC(=O)O)NC(=O)[C@H](CCCCN)NC(=O)[C@@H]3CSSC[C@@H](C(=O)N[C@H](C(=O)N4CCC[C@H]4C(=O)N[C@@H](CCCCN)C(N)=O)[C@@H](C)O)NC(=O)[C@H](Cc4c[nH]cn4)NC(=O)[C@H](CSSC[C@H](NC(=O)[C@H](CCC(N)=O)NC(=O)[C@H](CCCNC(=N)N)NC(=O)[C@H](CO)NC1=O)C(=O)N[C@@H](CC(C)C)C(=O)N[C@@H](CCCCN)C(=O)N1CCC[C@H]1C(=O)N3)NC(=O)[C@H](CCCCN)NC(=O)CNC(=O)[C@H](CC(N)=O)NC(=O)[C@H](CCSC)NC2=O (H-VIINVKCKISRQCLKPCKDAGMRFGKCMNGKCHCTPK-NH2; disulfide 7-27, 13-32, 17-34)	> 1000			0.067 ± 0.007	> 1000

Source: patent US7745575B1 (Cellpep Pharma Inc., priority 2004, dated 2010)
